Some of the results follow. The full chains were built here from the parent and the listed change. Inactive controls read about 0.05.
B1: TEV protease; numbered along this chain (parent)
chain: MGESLFKGPRDYNPISSSICHLTNESDGHTTSLYGIGFGPFIITNKHLFRRNNGTLVVQSLHGVFKVKDTTTLQQHLVDGRDMIIIRMPKDFPPFPQKLKFREPQREERICLVTTNFQTKSMSSMVSDTSCTFPSGDGIFWKHWIQTKDGQCGSPLVSTRDGFIVGIHSASNFTNTNNYFTSVPKNFMELLTNQEAQQWVSGWRLNADSVLWGGHKVFMVKPEEPFQPVKEATQL

Variants of: B1
Assay: raw area under fraction-flipped curve 0-4 h after induction (AUC4h, not background-subtracted), DNA-recorder readout of cleavage of the substrate (dimensionless); higher = more cleavage of the substrate by the protease variant
Settings: temperature: 34 °C; time window: 0-4 h after rhamnose induction
Description: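 In vivo DNA recorder in E. coli TOP10(DE3) ΔrhaA at 34 °C. Each TEVp single-site mutant (parent TEVp 0) is paired with a single-site variant of the 7-mer TEVs (canonical ENLYFQ|S). The substrate sits between flexible linkers in a Bxb1-sfGFP-TEVs-SsrA fusion, so cleavage stabilises Bxb1 and speeds flipping of a recombination array, read by NGS. The value is the raw area under the fraction-flipped curve over 0-4 h after rhamnose induction (AUC4h), with ≥20 reads per time point. It is not background-subtracted; inactive controls average about 0.047.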
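Also: Bxb1 expression induced with 0.2% (w/v) L-rhamnose at OD600 near 0.5, cultures sampled hourly, flipped fraction per protease–substrate barcode pair counted by paired-end Illumina sequencing.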

Row | Variant | area with substrate ENLAFQS | area with substrate ENLDFQS | area with substrate ENLFFQS | area with substrate ENLGFQS | area with substrate ENLHFQS | area with substrate ENLKFQS | area with substrate ENLLFQS | area with substrate ENLNFQS | area with substrate ENLPFQS | area with substrate ENLRFQS | area with substrate ENLSFQS | area with substrate ENLCFQS | area with substrate ENLEFQS | area with substrate ENLIFQS | area with substrate ENLMFQS | area with substrate ENLQFQS | area with substrate ENLVFQS | area with substrate ENLWFQS | area with substrate ENLTFQS
1 | D161K | 0.0562 | 0.063 | 0.0632 | 0.0459 | 0.058 | 0.0649 | 0.0518 | 0.061 | 0.0508 | 0.0715 | 0.0674 | – | – | – | – | – | – | – | –
2 | F163R | 0.0617 | 0.0696 | 0.0942 | 0.0172 | 0.0841 | 0.0449 | 0.0945 | 0.0677 | 0.0553 | 0.0795 | 0.0768 | 0.0824 | 0.0672 | 0.0745 | 0.0662 | – | – | – | –
3 | F163V | 0.0787 | 0.0584 | 0.0895 | – | – | 0.0727 | – | 0.0656 | 0.0553 | – | 0.0585 | – | – | – | – | – | – | – | –
4 | I164C | 0.0669 | 0.0636 | 0.092 | 0.0657 | 0.0674 | 0.0705 | – | 0.0537 | – | 0.0685 | 0.0642 | 0.0818 | 0.0576 | 0.0632 | – | 0.0544 | 0.0755 | 0.0571 | –
5 | G166V | 0.0667 | – | 0.0474 | – | 0.0542 | 0.0543 | 0.0571 | 0.0544 | 0.0518 | 0.0442 | 0.0598 | 0.0607 | 0.0534 | – | – | 0.0427 | – | 0.0496 | –
6 | S169T | 0.0749 | 0.0634 | 0.0887 | – | 0.0687 | 0.083 | – | 0.0623 | 0.0571 | 0.0818 | 0.0576 | 0.0768 | 0.0503 | 0.0856 | 0.0683 | 0.0868 | 0.0856 | – | 0.0689
7 | F173A | 0.0629 | 0.0823 | 0.0885 | 0.0755 | 0.0696 | 0.0754 | 0.0489 | 0.0527 | 0.0587 | 0.0704 | 0.0631 | 0.056 | 0.0895 | 0.0806 | 0.0727 | 0.0609 | 0.06 | 0.0669 | –
8 | F173D | 0.0596 | 0.0616 | 0.0749 | 0.0662 | 0.0657 | 0.0599 | 0.061 | 0.0609 | 0.0664 | 0.0598 | 0.069 | 0.0611 | 0.0657 | 0.0697 | – | 0.0794 | – | 0.0634 | –
9 | N175C | 0.072 | 0.0993 | 0.0907 | – | 0.0677 | 0.073 | – | 0.066 | 0.0379 | 0.086 | – | – | – | – | – | 0.0681 | – | – | –
10 | N175F | 0.0513 | 0.0687 | – | – | 0.0517 | 0.0723 | 0.0978 | – | 0.0551 | – | 0.0918 | 0.0729 | 0.095 | 0.0809 | 0.0951 | 0.0603 | – | 0.0599 | –
11 | T176Y | 0.0689 | 0.0671 | 0.0612 | – | 0.0561 | 0.0575 | 0.0473 | 0.0711 | 0.0528 | 0.0357 | – | – | 0.0452 | 0.0043 | – | 0.0299 | – | – | –
12 | N177A | 0.0954 | 0.0801 | 0.0758 | 0.0643 | 0.0664 | 0.0791 | 0.09 | 0.0595 | 0.0634 | 0.0634 | – | 0.0739 | – | 0.0861 | 0.0802 | – | 0.1 | – | –
13 | F180L | 0.0902 | – | 0.115 | 0.0753 | 0.0694 | 0.0906 | – | 0.0617 | – | – | – | 0.107 | – | 0.0777 | – | 0.0729 | – | – | –
